Some of the results follow. The list includes weakly bound sequences.
molecular target: T1, MBP-FoxP3dN (UniProt Q99JB6); assay: PD-seq (MBP pull-down with sequencing); conditions: 20 mM Tris-HCl pH 7.5, 100 mM NaCl, 1.5 mM MgCl2, 0.4 uM protein, 0.1 uM dsDNA library, 30 min, room temperature, amylose pull-down; high values mean tight binding; double strand, one strand shown
T1 sequence: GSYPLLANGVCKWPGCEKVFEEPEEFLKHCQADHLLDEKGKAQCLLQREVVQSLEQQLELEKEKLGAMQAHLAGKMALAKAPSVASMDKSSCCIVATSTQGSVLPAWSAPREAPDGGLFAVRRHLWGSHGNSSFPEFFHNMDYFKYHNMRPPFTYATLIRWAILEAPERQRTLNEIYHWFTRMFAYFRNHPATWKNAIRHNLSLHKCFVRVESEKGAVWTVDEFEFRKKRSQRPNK

Row | Sequence | binding signal (RPM ratio (pull-down/input))
1 | GATGATTGTTCTCCCAGCTGATGAATTATAGTAGTCGAGTAAACAAATTTTCCTAATCTTTCTGTTCAAGCGCCATCTAC | 0.584
2 | GATGATTGTTCTCCCAGCTGATGAATTGTGGTCATCGAGTAAACAAATTTTCCTAATCTTTCTGTTCAAGCGCCATCTAC | 1.14
3 | GATGATTGTTCTCCCAGCTGATGAATTTGACTAGTCGAGTAAACAAATTTTCCTAATCTTTCTGTTCAAGCGCCATCTAC | 0.36
4 | GATGATTGTTCTCCCAGCTGATGAATTTAAACTATCGAGTAAACAAATTTTCCTAATCTTTCTGTTCAAGCGCCATCTAC | 0.454
5 | GATGATTGTTCTCCCAGCTGATGAATTCTCGAACTCGAGTAAACAAATTTTCCTAATCTTTCTGTTCAAGCGCCATCTAC | 0.193
6 | GATGATTGTTCTCCCAGCTGATGAATTCCTGCGATCGAGTAAACAAATTTTCCTAATCTTTCTGTTCAAGCGCCATCTAC | 0.443
7 | GATGATTGTTCTCCCAGCTGATGAATTTATGCTCTCGAGTAAACAAATTTTCCTAATCTTTCTGTTCAAGCGCCATCTAC | 1.54
8 | GATGATTGTTCTCCCAGCTGATGAATTTTAGAGATCGAGTAAACAAATTTTCCTAATCTTTCTGTTCAAGCGCCATCTAC | 0.22
9 | GATGATTGTTCTCCCAGCTGATGAATTTTGGATCTCGAGTAAACAAATTTTCCTAATCTTTCTGTTCAAGCGCCATCTAC | 0.327
10 | GATGATTGTTCTCCCAGCTGATGAATTGTACTGTTCGAGTAAACAAATTTTCCTAATCTTTCTGTTCAAGCGCCATCTAC | 0.855
11 | GATGATTGTTCTCCCAGCTGATGAATTCAGAAGGTCGAGTAAACAAATTTTCCTAATCTTTCTGTTCAAGCGCCATCTAC | 0.187
12 | GATGATTGTTCTCCCAGCTGATGAATTCCTAAGTTCGAGTAAACAAATTTTCCTAATCTTTCTGTTCAAGCGCCATCTAC | 0.254
13 | GATGATTGTTCTCCCAGCTGATGAATTTTCCCCCTCGAGTAAACAAATTTTCCTAATCTTTCTGTTCAAGCGCCATCTAC | 0.157
14 | GATGATTGTTCTCCCAGCTGATGAATTTCACGCATCGAGTAAACAAATTTTCCTAATCTTTCTGTTCAAGCGCCATCTAC | 1.01
15 | GATGATTGTTCTCCCAGCTGATGAATTGCACGAGTCGAGTAAACAAATTTTCCTAATCTTTCTGTTCAAGCGCCATCTAC | 0.517
16 | GATGATTGTTCTCCCAGCTGATGAATTCAAAGGTTCGAGTAAACAAATTTTCCTAATCTTTCTGTTCAAGCGCCATCTAC | 0.196
17 | GATGATTGTTCTCCCAGCTGATGAATTTAATCATTCGAGTAAACAAATTTTCCTAATCTTTCTGTTCAAGCGCCATCTAC | 0.692
18 | GATGATTGTTCTCCCAGCTGATGAATTGCGGCGATCGAGTAAACAAATTTTCCTAATCTTTCTGTTCAAGCGCCATCTAC | 0.888
19 | GATGATTGTTCTCCCAGCTGATGAATTAGATATATCGAGTAAACAAATTTTCCTAATCTTTCTGTTCAAGCGCCATCTAC | 0.752
20 | GATGATTGTTCTCCCAGCTGATGAATTGGGGTCCTCGAGTAAACAAATTTTCCTAATCTTTCTGTTCAAGCGCCATCTAC | 0.484
21 | GATGATTGTTCTCCCAGCTGATGAATTCTCTCGGTCGAGTAAACAAATTTTCCTAATCTTTCTGTTCAAGCGCCATCTAC | 0.2

Row | Sequence | binding signal (RPM ratio (pull-down/input))
22 | GATGATTGTTCTCCCAGCTGATGAATTCACCTTATCGAGTAAACAAATTTTCCTAATCTTTCTGTTCAAGCGCCATCTAC | 0.363
23 | GATGATTGTTCTCCCAGCTGATGAATTTTGCTCCTCGAGTAAACAAATTTTCCTAATCTTTCTGTTCAAGCGCCATCTAC | 0.935
24 | GATGATTGTTCTCCCAGCTGATGAATTACATAGCTCGAGTAAACAAATTTTCCTAATCTTTCTGTTCAAGCGCCATCTAC | 0.46
25 | GATGATTGTTCTCCCAGCTGATGAATTCTCTGCTTCGAGTAAACAAATTTTCCTAATCTTTCTGTTCAAGCGCCATCTAC | 0.262
26 | GATGATTGTTCTCCCAGCTGATGAATTTCGCGTTTCGAGTAAACAAATTTTCCTAATCTTTCTGTTCAAGCGCCATCTAC | 3.42
27 | GATGATTGTTCTCCCAGCTGATGAATTCAAAGTATCGAGTAAACAAATTTTCCTAATCTTTCTGTTCAAGCGCCATCTAC | 0.392
28 | GATGATTGTTCTCCCAGCTGATGAATTCCGTACGTCGAGTAAACAAATTTTCCTAATCTTTCTGTTCAAGCGCCATCTAC | 0.509
29 | GATGATTGTTCTCCCAGCTGATGAATTTTACTTGTCGAGTAAACAAATTTTCCTAATCTTTCTGTTCAAGCGCCATCTAC | 0.939
30 | GATGATTGTTCTCCCAGCTGATGAATTGGAAAATTCGAGTAAACAAATTTTCCTAATCTTTCTGTTCAAGCGCCATCTAC | 0.195
31 | GATGATTGTTCTCCCAGCTGATGAATTGGGATTGTCGAGTAAACAAATTTTCCTAATCTTTCTGTTCAAGCGCCATCTAC | 0.945
32 | GATGATTGTTCTCCCAGCTGATGAATTCCGACAGTCGAGTAAACAAATTTTCCTAATCTTTCTGTTCAAGCGCCATCTAC | 0.417
33 | GATGATTGTTCTCCCAGCTGATGAATTGGGCGGCTCGAGTAAACAAATTTTCCTAATCTTTCTGTTCAAGCGCCATCTAC | 0.525
34 | GATGATTGTTCTCCCAGCTGATGAATTTCTTCTCTCGAGTAAACAAATTTTCCTAATCTTTCTGTTCAAGCGCCATCTAC | 0.215
35 | GATGATTGTTCTCCCAGCTGATGAATTCTGTCATTCGAGTAAACAAATTTTCCTAATCTTTCTGTTCAAGCGCCATCTAC | 4.31
36 | GATGATTGTTCTCCCAGCTGATGAATTGCGGGGTTCGAGTAAACAAATTTTCCTAATCTTTCTGTTCAAGCGCCATCTAC | 0.842
37 | GATGATTGTTCTCCCAGCTGATGAATTTAGGGCGTCGAGTAAACAAATTTTCCTAATCTTTCTGTTCAAGCGCCATCTAC | 0.604
38 | GATGATTGTTCTCCCAGCTGATGAATTAGTATATTCGAGTAAACAAATTTTCCTAATCTTTCTGTTCAAGCGCCATCTAC | 3.75
39 | GATGATTGTTCTCCCAGCTGATGAATTATTATATTCGAGTAAACAAATTTTCCTAATCTTTCTGTTCAAGCGCCATCTAC | 0.647
40 | GATGATTGTTCTCCCAGCTGATGAATTTATAAATTCGAGTAAACAAATTTTCCTAATCTTTCTGTTCAAGCGCCATCTAC | 0.429
41 | GATGATTGTTCTCCCAGCTGATGAATTGAAACAATCGAGTAAACAAATTTTCCTAATCTTTCTGTTCAAGCGCCATCTAC | 1.2
42 | GATGATTGTTCTCCCAGCTGATGAATTCAGTGATTCGAGTAAACAAATTTTCCTAATCTTTCTGTTCAAGCGCCATCTAC | 1.26

Row | Sequence | binding signal (RPM ratio (pull-down/input))
43 | GATGATTGTTCTCCCAGCTGATGAATTTACCTGGTCGAGTAAACAAATTTTCCTAATCTTTCTGTTCAAGCGCCATCTAC | 0.329
44 | GATGATTGTTCTCCCAGCTGATGAATTCTCAACATCGAGTAAACAAATTTTCCTAATCTTTCTGTTCAAGCGCCATCTAC | 0.466
45 | GATGATTGTTCTCCCAGCTGATGAATTGTCCGAGTCGAGTAAACAAATTTTCCTAATCTTTCTGTTCAAGCGCCATCTAC | 0.223
46 | GATGATTGTTCTCCCAGCTGATGAATTCGCTGTATCGAGTAAACAAATTTTCCTAATCTTTCTGTTCAAGCGCCATCTAC | 1.1
47 | GATGATTGTTCTCCCAGCTGATGAATTAAGGCTTTCGAGTAAACAAATTTTCCTAATCTTTCTGTTCAAGCGCCATCTAC | 1.08
48 | GATGATTGTTCTCCCAGCTGATGAATTAGACGTCTCGAGTAAACAAATTTTCCTAATCTTTCTGTTCAAGCGCCATCTAC | 0.536
49 | GATGATTGTTCTCCCAGCTGATGAATTATAGGAGTCGAGTAAACAAATTTTCCTAATCTTTCTGTTCAAGCGCCATCTAC | 0.248
50 | GATGATTGTTCTCCCAGCTGATGAATTCTGCCACTCGAGTAAACAAATTTTCCTAATCTTTCTGTTCAAGCGCCATCTAC | 6.04
51 | GATGATTGTTCTCCCAGCTGATGAATTCTATAGGTCGAGTAAACAAATTTTCCTAATCTTTCTGTTCAAGCGCCATCTAC | 0.372
52 | GATGATTGTTCTCCCAGCTGATGAATTCCCCATCTCGAGTAAACAAATTTTCCTAATCTTTCTGTTCAAGCGCCATCTAC | 0.283
53 | GATGATTGTTCTCCCAGCTGATGAATTTATTATTTCGAGTAAACAAATTTTCCTAATCTTTCTGTTCAAGCGCCATCTAC | 5.57
54 | GATGATTGTTCTCCCAGCTGATGAATTCCCAACCTCGAGTAAACAAATTTTCCTAATCTTTCTGTTCAAGCGCCATCTAC | 0.244
55 | GATGATTGTTCTCCCAGCTGATGAATTCTGGGTGTCGAGTAAACAAATTTTCCTAATCTTTCTGTTCAAGCGCCATCTAC | 0.658
56 | GATGATTGTTCTCCCAGCTGATGAATTCATTCCGTCGAGTAAACAAATTTTCCTAATCTTTCTGTTCAAGCGCCATCTAC | 0.236
57 | GATGATTGTTCTCCCAGCTGATGAATTTCGTACGTCGAGTAAACAAATTTTCCTAATCTTTCTGTTCAAGCGCCATCTAC | 0.52
58 | GATGATTGTTCTCCCAGCTGATGAATTGGAATTCTCGAGTAAACAAATTTTCCTAATCTTTCTGTTCAAGCGCCATCTAC | 0.526
59 | GATGATTGTTCTCCCAGCTGATGAATTCTAATCTTCGAGTAAACAAATTTTCCTAATCTTTCTGTTCAAGCGCCATCTAC | 0.335
60 | GATGATTGTTCTCCCAGCTGATGAATTGGTTCCATCGAGTAAACAAATTTTCCTAATCTTTCTGTTCAAGCGCCATCTAC | 0.356
61 | GATGATTGTTCTCCCAGCTGATGAATTGTGGATATCGAGTAAACAAATTTTCCTAATCTTTCTGTTCAAGCGCCATCTAC | 0.944
62 | GATGATTGTTCTCCCAGCTGATGAATTAGGGAACTCGAGTAAACAAATTTTCCTAATCTTTCTGTTCAAGCGCCATCTAC | 0.254
63 | GATGATTGTTCTCCCAGCTGATGAATTGCATACATCGAGTAAACAAATTTTCCTAATCTTTCTGTTCAAGCGCCATCTAC | 1.6
